These results are taken from ChEMBL document CHEMBL4888484, “Replenishing the malaria drug discovery pipeline: Screening and hit evaluation of the MMV Hit Generation Library 1 (HGL1) against asexual blood stage Plasmodium falciparum ,using a nano luciferase reporter read-out” (2022).

The whole screen tested about 150,000 compounds, of which about 540 (0.36%) showed an effect of 50% or more. Some of the results follow.

This assay has as its system Plasmodium falciparum. Briefly: Primary screen in NF54 nanoGlo assay, in single point, at 2uM, 72h; a lower Z score goes with more inhibition. It counts as functional, Erythrocyte. The settings on record: timepoint 72 hour.
On to `CCc1nnc(CN(C(=O)Nc2cccc3c2CCC3)C(C)C)o1`, for which the “% Inhibition” value was -21% and the Z score amounted to 1.92.
The corresponding values for `CN(C[C@H]1CCCO1)c1nccc(C2CCCC2)n1` are 6% and -0.71.
The corresponding values for `O=C(Nc1ccc(OCc2ccccc2)cc1)C1CCC1` are -11% and 1.53.
The corresponding values for `c1ccc(-n2ccc(CN3CCC[C@H]3c3ccsc3)n2)cc1` are -35% and 4.08.
Turning to `CC[C@H](O)c1cc2n(n1)CCN(C(=O)c1ccncc1Cl)C2`, the “% Inhibition” value is given as -2% and the Z score worked out at 0.33.
For `CCOC[C@H]1CCCN(C(=O)Nc2ccc(N3CCCC3)nc2C)C1`, in that order: 7% and -1.01.
The corresponding values for `Cc1cccc2c(=O)n(CC(=O)N(C)[C@H]3CC(=O)N(Cc4ccccc4)C3=O)cnc12` are 1% and -0.18.
For `COCCN(C)S(=O)(=O)NCC1CCC1`, in that order: -8% and 0.97.
Turning to `Cc1ccc2c(Nc3ccc(S(C)(=O)=O)cc3)c(C(=O)N3CCCC3)cnc2n1`, the “% Inhibition” value is -5% and the Z score turned out to be 0.77.
The corresponding values for `Cc1ccc2c(c1)CN(C(=O)COCc1cc(C)on1)C(C)(C)C2` are -17% and 2.23.
With `O=C(COc1ccc2c(c1)OCO2)NCc1cccnc1`, the “% Inhibition” value is recorded as -5% and the Z score turned out to be 0.94.
In the case of `COC(=O)CNC(=O)N[C@@H](C)CCc1ccc(OC)cc1`, the “% Inhibition” value is on record as -4% and the Z score is recorded as 0.45.
Take `C=C(C)COc1c(OC)cccc1-c1c(C#N)c(N)nc2c1COC2C` (stereo unspecified): the “% Inhibition” value is on record as -5% and the Z score was 0.58.
For `CCOc1ccccc1CNC(=O)c1ccnc(-c2cccs2)c1`, in that order: -7% and 0.97.
The corresponding values for `N#CCC(=O)N1CC=C(C(F)(F)F)CC1` are -7% and 1.25.
With `Cc1ncsc1CCOc1cccc(CNC[C@H]2CCCO2)c1`, the “% Inhibition” value amounted to 1% and the Z score is on record as -0.16.
For `COc1ccc(-c2c(C(=O)Nc3ccc(F)cc3F)nn3c(C)cc(=O)[nH]c23)cc1`, in that order: 13% and -1.54.
As to `CC(C)(C)OC(=O)N1CC[C@H]1C(N)=NOCc1ncnn1CCF`, the “% Inhibition” value is recorded as -11% and the Z score is recorded as 1.54.
Take `CS(=O)(=O)c1ccccc1N1CC(O)(c2ccc(F)cc2)C1`: the “% Inhibition” value is given as -6% and the Z score worked out at 0.86.
For `CC1=C(C(=O)NCc2ccccc2)[C@H](c2ccc(C)cc2)n2nnnc2N1`, in that order: -3% and 0.4.
For `CCN1CCN(C(=O)CO[C@H](c2ccccc2)C(F)(F)F)CC1=O`, in that order: -12% and 2.44.
The corresponding values for `C[C@@](CO)(NC(=O)Cc1cccc(F)c1F)C1CC1` are -6% and 0.72.
For `O=C(NCCS(=O)(=O)c1ccccc1F)NCc1ccco1`, the “% Inhibition” value is on record as 29% and the Z score is -3.91.
The corresponding values for `COc1ccc([C@H]2C[C@@H]2CC(=O)Nc2ncnn2-c2ccccc2)cc1` are -6% and 0.97.
On to `O=C(CNC(=O)OCc1ccccc1)NCc1cccnc1-c1ccsc1`, for which the “% Inhibition” value is -9% and the Z score is 1.68.
The corresponding values for `O=C(NCc1ccco1)c1ccc(Br)o1` are -17% and 2.31.
The corresponding values for `CCC1CCC(N[C@H](c2c(C)nn(C)c2C)C(F)(F)F)CC1` (stereo partly specified) are -11% and 0.89.
On to `Cc1cc(N2CCC=C(c3ccncc3)C2)ccn1`, for which the “% Inhibition” value is -3% and the Z score is reported as 0.51.
For `CC=CC[C@@H](CO)NC(=O)CNC(=O)c1cccc(OC)c1`, in that order: -10% and 1.72.
Turning to `Cc1ccc2c(Nc3cc(F)ccc3F)c(C(=O)N3CCCC3)cnc2n1`, the “% Inhibition” value was determined as 1% and the Z score is listed as -0.07.
The corresponding values for `Cc1ccnc(NCc2ccc(CN3CC[S+]([O-])CC3)cc2)n1` are 0% and -0.05.
For `CCOc1cc(-c2nnc(N)s2)ccc1OCc1nnc(N)s1`, in that order: -23% and 2.28.
For `Cc1nnc(NCCc2nnc3ccccn23)c(C#N)c1C`, in that order: -17% and 2.45.
As to `CC(C)Cc1noc([C@H](C)NC(=O)c2cnn(Cc3ccccc3)c2)n1`, the “% Inhibition” value is -1% and the Z score was 0.11.
As to `CC(CCS(C)(=O)=O)NC(=O)NCC(C)c1ccc(F)cc1F` (stereo unspecified), the “% Inhibition” value is 29% and the Z score is given as -3.86.
The corresponding values for `CC(=O)c1cccc(C(=O)N2C[C@H]3CC[C@@H](C2)N(Cc2ccccn2)C3)c1` are 2% and -0.32.
The corresponding values for `c1cc(-c2nccn2Cc2nnc3n2CCC3)c2nonc2c1` are -10% and 1.26.
The corresponding values for `O=C(OC1CCOCC1)N1CC[C@H](Oc2ncccn2)C1` are -7% and 1.39.
`Cc1ccc(-c2nnc([C@H]3CCN(C4CCCCC4)C3)o2)cc1`: the “% Inhibition” value is -10% and the Z score is given as 1.26.
For the compound `Cc1ccc(CCCN(C)C[C@H](O)CO)cc1`, the “% Inhibition” value is recorded as -1% and the Z score came out at 0.12.
Consider `CC(=O)Nc1nc2ccc(NC(=O)Nc3ccc(F)cc3)cc2s1`, for which the “% Inhibition” value is -4% and the Z score is reported as 0.61.
On to `C[C@@H](CCc1ccccc1F)C(=O)Nc1nncn1C`, for which the “% Inhibition” value is listed as -15% and the Z score is listed as 1.3.
With `CCn1cccc(CNCc2cccc(C3CC3)c2)c1=O`, the “% Inhibition” value is -8% and the Z score stood at 1.52.
The corresponding values for `COc1ccc(S(=O)(=O)[C@@H](CNC(=O)c2ccco2)c2cccnc2)cc1` are -8% and 1.53.
The corresponding values for `CCc1cc(C(=O)N[C@@H](C)c2ncc(C)o2)[nH]n1` are 0% and -0.05.
The corresponding values for `O=c1[nH]c2nc(NCCN3CCCC3)ncc2c(=O)n1Cc1ccccc1F` are -4% and 0.81.
For the compound `COC(=O)c1nc(-c2cnccn2)sc1-c1ccccc1`, the “% Inhibition” value stood at 9% and the Z score was -1.48.
The corresponding values for `Oc1ccc(-c2cc(-c3ccccc3)nc(N3CCOCC3)n2)cc1` are 8% and -1.08.
The corresponding values for `COc1ccccc1CC(=O)N[C@H]1COCC[C@@H]1O` are -4% and 0.76.
For `c1coc(CNc2ccccc2-n2c(-c3ccco3)nc3ccccc32)c1`, in that order: 8% and -1.23.
Regarding `Cc1cc(C)n(-c2nc3nonc3nc2Nc2ccc(C)c(C)c2)n1`, the “% Inhibition” value turned out to be 0% and the Z score was determined as 0.09.
As to `Cc1nn(C)c(C)c1C(=O)NC[C@@](O)(c1ccccc1)C1CCOCC1`, the “% Inhibition” value is -11% and the Z score worked out at 1.82.
Consider `COc1ccccc1CNC(=O)c1sc(Nc2ccc(F)cn2)nc1C`, for which the “% Inhibition” value is recorded as -12% and the Z score amounted to 1.93.
The corresponding values for `CCOC(=O)C(=O)Nc1cccc(Cl)c1` are -3% and 0.35.
The corresponding values for `COC(=O)CN1C2CCC1CC(N(C)C(=O)c1ccccc1)C2` (stereo unspecified) are 31% and -3.92.
The corresponding values for `CC1CCC2(CC1)OC[C@H](CNS(=O)(=O)NCC(F)(F)F)O2` (stereo partly specified) are -6% and 0.81.
With `CC(C)(NC(=O)Nc1ccccc1N1CCCC1=O)C(=O)N1CCCC1`, the “% Inhibition” value is reported as -2% and the Z score worked out at 0.24.
For `CNC(=O)[C@H]1CCN(c2ncc(F)c(OC)n2)C1`, the “% Inhibition” value is on record as -10% and the Z score is reported as 1.93.
For `CCCCc1c(C)nc(N)nc1NCCC(=O)N1CCCC1`, in that order: -6% and 0.74.
As to `COc1ccc(OCc2cc(C(=O)N3CCN4CCC[C@H]4C3)n[nH]2)c(Cl)c1`, the “% Inhibition” value was -30% and the Z score stood at 2.67.
The corresponding values for `CC(C)Cn1cc(C(=O)Nc2cc(C(F)(F)F)n[nH]2)cn1` are -4% and 0.45.
The corresponding values for `O=C(NCCC(c1ccccc1)c1ccccc1)N1CCCC1` are -3% and 0.28.
The corresponding values for `CCN1CCN(Cc2cccn2-c2nnc(N3CCC(C)CC3)s2)CC1` are -2% and 0.18.
Consider `CN(CC(=O)N1CCOCC1)[C@H]1CCc2ccccc2C1`, for which the “% Inhibition” value is recorded as -9% and the Z score was found to be 0.75.
The corresponding values for `C[C@@H](Cc1cn(CCCn2ccnc2)nn1)c1ccccc1` are -2% and 0.44.
Regarding `OC1CCN(CC2CCC3(CCCC3)O2)C12CCCC2` (stereo unspecified), the “% Inhibition” value came to 1% and the Z score is -0.11.
The corresponding values for `CS(=O)(=O)N1CCN(C(=O)c2ccc3nsnc3c2)CC1` are 10% and -1.1.
The corresponding values for `Cc1n[nH]c(CNC(=O)N[C@H](c2ccc(F)c(Cl)c2)C2CC2)n1` are -27% and 2.85.
Turning to `CN1CCN(S(=O)(=O)c2ccc3c(c2)CCN3)CC1`, the “% Inhibition” value is -6% and the Z score was found to be 0.75.
The corresponding values for `Cc1nn(C)c2sc(C(=O)N3CCOCC3)cc12` are -1% and 0.22.
The corresponding values for `CNC(=O)Cc1noc(-c2ccsc2)n1` are 21% and -2.1.
For `CCOC(=O)N1CCC(N2CCOc3c(cc(-c4ccc(C(F)(F)F)cn4)cc3OC)C2)CC1`, in that order: -3% and 0.61.
For the compound `O=C(N[C@H]1CCc2nnc(C3CC3)n2CC1)c1cccnc1O`, the “% Inhibition” value was -6% and the Z score came to 0.86.
The corresponding values for `COc1cccc(CN2CCC3(CC[C@@H]3OC)CC2)c1OC` are -4% and 0.76.
The corresponding values for `Cc1nc(CN(C)C(=O)C(=O)Nc2cc(F)c(F)cc2F)cs1` are -8% and 1.48.
For `CCOC(=O)c1c(C)[nH]c(-c2ccc(F)cc2)c1O`, in that order: 5% and -0.74.
For the compound `CC(C)S(=O)(=O)CCCOc1cccc(F)c1C#N`, the “% Inhibition” value is listed as -6% and the Z score was found to be 0.96.
The corresponding values for `Cc1ncc2c(n1)CCN(Cc1cc(Cl)c3c(c1)OCCO3)C2` are -16% and 2.24.
The corresponding values for `CC(=O)Oc1c(-c2ccc(NC(=O)C(C)C)cc2)c(-c2ccc(C)cc2)nn1-c1ccc(C)cc1` are 16% and -2.88.
As for `COC(=O)[C@H]1CCc2nnc(C(=O)Nc3ccccn3)n2C1`, the “% Inhibition” value is listed as -13% and the Z score stood at 1.08.
Regarding `CN1C(=O)c2cc(NC(=O)COc3ccc(Cl)cc3)ccc2Oc2ccccc21`, the “% Inhibition” value is reported as -6% and the Z score is reported as 0.63.
The corresponding values for `O=C(Nc1cccc(Br)c1)C1CCN(c2cc(N3CCCC3)ncn2)CC1` are 2% and -0.35.
The corresponding values for `O=S(=O)(N1CCCCC1)N1CCC(c2nnc3n2CCC3)CC1` are -1% and 0.1.
The corresponding values for `Cc1ccc(-n2nnc(C(=O)O)c2-c2cccnc2)c(F)c1` are -14% and 1.52.
With `CCn1cc(C(=O)N2C[C@@H]3CC[C@H]2CN(C)C3)c(C)n1`, the “% Inhibition” value is given as -9% and the Z score is 1.57.
For `CC1CN(C)CCC1N(C)C(=O)Nc1ccn(CCCC#N)n1` (stereo unspecified), in that order: 4% and -0.33.
The corresponding values for `CN(Cc1coc(-c2ccc(S(C)(=O)=O)cc2)n1)C1CCN(c2ncccn2)CC1` are 6% and -0.58.
In the case of `C=C(C)CN1CCN(Cc2cc3ccc(Cl)cc3nc2O)CC1`, the “% Inhibition” value is recorded as -9% and the Z score amounted to 1.14.
